Values marked as one replicate rest on one cluster of the flow cell; about a third of the high ones do not repeat.
test system: ATP; assay: switch fluorescence ratio, 500 uM ATP over buffer (Cy3 cluster intensity, sum of 5 cycles each) (fold (ratio)); higher = stronger signal-on switching upon ATP binding; sequences stand for … in TCGTCGGCAGCGTCAGATGTGTATAAGAGACAGTTTTTTTTTTTTTTTTTTTTTTTTT…TC; settings: aptamer strand: ATP DNA aptamer (quencher-CACCTGGGGGAGTATTGCGGAGGAAGG + anchor), 100 nM annealed; ATP concentration: 500 uM; one replicate
Procedure, shortened: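 Values give the fluorescence ratio for each switch-domain sequence, averaged from per-cluster ratios of summed target-cycle to summed buffer-cycle Cy3 intensity. The Cy3-labelled switching-strand clusters sat on a modified Illumina MiSeq flow-cell, were annealed to 100 nM quencher-labelled ATP aptamer, and were imaged in selection buffer, then after 15 min with 500 uM ATP at 22 °C. Five cycles ran with NaOH stripping and re-annealing between them, and clusters outside 100-1000 RFU were excluded.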
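Further: ATP exposure 15 min at 22 °C before imaging.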

Sequence | switch fluorescence ratio
CCTTAATGTT | 1
CCTTACTAGG | 1.04
CCTTACTTTA | 1.06
CCTTAGTCGC | 1.12
CCTTATTGCG | 0.992
CCTTCGATA | 3.36
CCTTCTGTTA | 1.07
CCTTGCACGA | 2.02
CCTTGCCTTT | 1.01
CCTTGCTTTA | 1.23
CCTTGGGAA | 1
CCTTGGTAAC | 1.28
CCTTGTCTCG | 1.09
CCTTGTGAAC | 1.08
CCTTTAATTC | 1.18
CCTTTACGCC | 1.61
CCTTTGACAA | 4.07
CCTTTTCACT | 1.03
CCTTTTCTTG | 1.12
CCTTTTGAAT | 1.01
CCTTTTGCGG | 1.07
CCTTTTTGA | 0.989
CCTTTTTTGC | 1.45
CCTTTTTTT | 0.973
CGAAAGCATA | 2.12
CGAAAGGTCC | 1.03

Sequence | switch fluorescence ratio
CGAAAGTGGA | 0.984
CGAAAGTTGT | 0.996
CGAAATATTG | 1.05
CGAAATGAGG | 1.02
CGAAATTTAG | 0.998
CGAACCGACT | 1.13
CGAACCGTCG | 1.05
CGAACTAGTA | 0.969
CGAAGCGCTC | 2.34
CGAAGCTGAT | 1.43
CGAAGTACGT | 1.08
CGAAGTCTGG | 1.03
CGAAGTTAGG | 0.957
CGAATACCGC | 1.1
CGAATATCGG | 0.986
CGAATATGGG | 0.964
CGAATCATTA | 0.969
CGAATCCGTC | 1.07
CGAATCGGTT | 0.964
CGAATGCT | 1.01
CGAATGCTGG | 1
CGAATGGCTA | 0.968
CGAATTCGTT | 1.02
CGAATTTGGG | 0.979
CGACACAGTC | 1.12
CGACACCATA | 1.34

Sequence | switch fluorescence ratio
CGACACCTGG | 1.51
CGACAGATCC | 1.07
CGACATCAGA | 1.02
CGACCACTTG | 1.02
CGACCAGCCT | 1.07
CGACCAGGGC | 1.52
CGACCAGTGT | 1.32
CGACCCGAAC | 1.13
CGACCCGCAC | 5.04
CGACCTGTGT | 1.19
CGACGACATG | 1.09
CGACGACCCT | 1.47
CGACGCAGG | 2.67
CGACGGTGT | 1.01
CGACTAGTTC | 0.996
CGACTCCGGT | 1.66
CGACTCGCAC | 4
CGACTCGGCC | 1.15
CGACTCTATA | 1.36
CGACTGCAGA | 1.61
CGACTTATTC | 1.02
CGACTTCATC | 1.09
CGACTTCTGG | 1.02
CGAGAAA | 1.02
CGAGAACAG | 1.01

From the supplement of paper PMC10126150
